Here are results for one molecule from patent US20150183867A1 (AbbVie / Abbott, published 2015).

The EC50 is the concentration that produces a half-maximal response. Lower therefore signals greater potency.

One test has as its target T1, Aβ1-42 (UniProt P05067 in part).
T1 construct: domain: Aβ1-42; Aβ 1-42 is a part of it; also called A beta
Kind of test: Aβ 1-42 ELISA, peptide on plate; N-terminal VD. As for the experimental part: ELISA assays were performed to screen for antibodies that bind a desired target antigen as follows. Maxisorb NUNC Immuno plates were coated with 100 μL/well of 1 μg/ml of Aβ1-42 diluted in coating buffer overnight at 6° C. Plates were washed three times with PBS containing 0.02% Tween 20. Blocking solution was prepared by dissolving the blocking reagent for ELISA (Roche) in 100 mL water and then diluted further 1:10 prior to use. Plates were blocked by the addition of 265 μL/well blocking solution for 2 hours at room temperature. Plates were washed three times after blocking with PBS containing 0.02% Tween 20.
Antibody or DVD-Igs were diluted to 100 ng/μL in PBST+0.5% BSA and serially diluted 1:3. One hundred microliters of antibody or DVD-Ig preparations was added to the plate and incubated for 2 hour at room temperature. Wells were washed three times with PBS containing 0.02% Tween 20.
One hundred microliters of TMB solution was added to each well and incubated for 10 minutes. TMB solution was prepared by mixing 20 mL 100 mM natrium-acetate pH4.9 with 200 μL TMB solution (Roche #92817060) and 29.5 μL 3% H₂O₂. The reaction was stopped by the addition of 50 μL 1N sulphuric acid. Plates were read spectrophotometrically at a wavelength of 450 nm.

In a further test the target is T2, IL-18 (UniProt Q14116 37-193, limits assumed).
T2 construct: Bought reagent
Kind of test: direct bind ELISA, antigen on plate; C-terminal VD. As for the experimental part:
Enzyme Linked Immunosorbent Assays to screen for antibodies that bind a desired target antigen were performed as follows. High bind ELISA plates (Corning Costar #3369, Acton, Mass.) were coated with 100 μL/well of 10 μg/ml of desired target antigen (R&D Systems, Minneapolis, Minn.) or desired target antigen extra-cellular domain/FC fusion protein (R&D Systems, Minneapolis, Minn.) or monoclonal mouse anti-polyHistidine antibody (R&D Systems # MAB050, Minneapolis, Minn.) in phosphate buffered saline (10×PBS, Abbott Bioresearch Center, Media Prep# MPS-073, Worcester, Mass.) overnight at 4° C. Plates were washed four times with PBS containing 0.02% Tween 20. Plates were blocked by the addition of 300 μL/well blocking solution (non-fat dry milk powder, various retail suppliers, diluted to 2% in PBS) for 1/2 hour at room temperature. Plates were washed four times after blocking with PBS containing 0.02% Tween 20.
One hundred microliters of antibody or DVD-Ig preparations diluted in blocking solution as described above was added to the desired target antigen plate or desired target antigen/FC fusion plate or the anti-polyHistidine antibody/His tagged desired target antigen plate prepared as described above and incubated for 1 hour at room temperature. Wells were washed four times with PBS containing 0.02% Tween 20. […]

B1: DVD231 (bispecific antibody, human IgG1, kappa)
heavy: EVQLLESGGGLVQPGGSLRLSCAASGFTFSNYGMSWVRQAPGKGLEWVASIRSGGGRTYYSDNVKGRFTISRDNSKNTLYLQMNSLRAEDTAVYYCVRYDHYSGSSDYWGQGTLVTVSSASTKGPEVQLVQSGTEVKKPGESLKISCKGSGYTVTSYWIGWVRQMPGKGLEWMGFIYPGDSETRYSPTFQGQVTISADKSFNTAFLQWSSLKASDTAMYYCARVGSGWYPYTFDIWGQGTMVTVSS[… human IgG1 constant region …]
light: DVVMTQSPLSLPVTPGEPASISCKSSQSLLDSDGKTYLNWLLQKPGQSPQRLIYLVSKLDSGVPDRFSGSGSGTDFTLKISRVEAEDVGVYYCWQGTHFPRTFGQGTKVEIKRTVAAPEIVMTQSPATLSVSPGERATLSCRASESISSNLAWYQQKPGQAPRLFIYTASTRATDIPARFSGSGSGTEFTLTISSLQSEDFAVYYCQQYNNWPSITFGQGTRLEIKRTVAAPSVFIFPPSDEQLKSGTASVVCLLNNFYPREAKVQWKVDNALQSGNSQESVTEQDSKDSTYSLSSTLTLSKADYEKHKVYACEVTHQGLSSPVTKSFNRGEC
notes: DVD-Ig; also called VD231H/VD231L
As for B1, the EC50 was 0.014 nM with Aβ1-42 and 50.6 nM in the test with IL-18.
